Results published in PubChem BioAssay AID686978 (National Center for Advancing Translational Sciences (NCATS), 2013).
Values joined by “and” are separate entries in the source; they are usually repeats but may differ in a detail not shown here. Equal entries are not always repeated. About 64,000 (15%) of roughly 420,000 compounds were called active. The inconclusive results got no clear call from the source; some entries with a clear call stand among them for comparison. Calls follow the shape of the dose curve; as a rule, active = well fitted inhibition curve with a large enough effect; inconclusive = small, poorly fitted or top-dose-only effect; inactive = flat fitted curve, though single readings scatter. Potencies beside an inconclusive call are fits to weak or partial responses and may not hold up.

Assay: qHTS for Inhibitors of human tyrosyl-DNA phosphodiesterase 1 (TDP1): qHTS in cells in absence of CPT; also: nearly all actives have a fitted effect of over 55% in size
Conditions: DT40 Tdp1-/- hTDP1 cells, no CPT, ATP luminescence, 48 h; activity change, negative = growth inhibition: at 46.2 µM (top of the series) unless noted
Summary of the method: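 Chicken DT40 Tdp1-/- cells stably complemented with human TDP1 were seeded at 400 cells/well with DMSO in place of 20 nM camptothecin. After compound pinning, cells grew at least 48 hr at 37 °C; viability read by CellTiter-Glo luminescence.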
% is scaled to controls: 0 for no effect and ±100 for the full control effect; potency is read from the fitted curve at half-maximal effect; tags tell the direction and shape of the fitted curve.

Compound	activity change, negative = growth inhibition	Potency
CC(=O)N1CCC[C@@]2(CCN(Cc3ccc(C#N)cc3)C2)C1	inactive: -15.7%	
COc1ccc(C(=O)Nc2nc(-c3cccs3)cs2)cc1		inconclusive: 29.1 µM [inhibitor, single point]
COc1ccc(CN(C)C(=O)c2ccc(NS(=O)(=O)c3ccc(F)cc3)cc2)c(OC)c1	inactive: -0.576%	
CCOC(=O)c1ccc(NC(=O)c2nc[nH]c2C(=O)NCCCCNC(=O)c2[nH]cnc2C(=O)Nc2ccc(C(=O)OCC)cc2)cc1		active: 4.61 µM
Cc1ccc(S(=O)(=O)c2cn(CC(=O)Nc3cccc(Cl)c3)c3ccccc3c2=O)cc1		inconclusive: 25.9 µM [inhibitor, single point]
O=c1[nH]c2ccccc2cc1-c1nnn(-c2ccc(F)cc2)n1	inconclusive: -30% [inhibitor]	
COc1ccc(/C=C2\COc3ccccc3C2=O)c(OC)c1		inconclusive: 20.6 µM [inhibitor, partial curve]
CCOc1ccc(NC(=O)CSc2nnc(-c3ccco3)n2N)cc1	inactive: 20.3%	
CCC1SC2=NC(C)=C(C(=O)OC)C(c3cccs3)N2C1=O (configuration not stated)	inactive: -13.6%	
CC1(C)N=C(SCc2ccc(F)cc2)c2ccccc2N1		inconclusive: 5.17 µM [inhibitor, partial curve]
NC(=O)c1ccc(SCC(=O)OCC(=O)NCc2ccco2)c([N+](=O)[O-])c1	inactive: 12.9%	
CC(C)CC(=O)Nc1ccc2c(c1)oc1ccccc12		inconclusive: 20.6 µM [inhibitor, single point]
Cc1cc(-c2ccccc2)nc(N(C)C)c1S(C)(=O)=O	inconclusive: -31.9% [inhibitor]	
Cc1c(C#N)c(N=CN(C)C)c(C(=O)c2ccccc2)n1-c1ccc(Br)cc1		inconclusive: 16.4 µM [inhibitor, single point]
OC(CSc1nnnn1-c1ccccc1)Cn1c2ccccc2c2ccccc21 (configuration not stated)		inconclusive: 29.1 µM [inhibitor, partial curve, poor fit]
COc1ccc(C(=O)/C=C/c2ccc(OC)c(Cn3nnc4ccccc43)c2)cc1		active: 20.6 µM
O=C(COc1cc2oc(=O)cc(-c3ccccc3)c2cc1Cl)NCC1CCC(C(=O)O)CC1 (configuration not stated)	inconclusive: -30.1% [inhibitor]	
CCOP(=O)(OCC)C(C#N)=C1SCN(c2ccccc2)CS1		inconclusive: 29.1 µM [inhibitor, single point]
O=C(c1ccccc1)c1sc(Nc2ccc3c(c2)OCO3)nc1-c1ccccc1		inconclusive: 29.1 µM [inhibitor, single point]
COCCN(Cc1nc(-c2ccc(-c3ccccc3)cc2)oc1C)C(C)C		active: 20.6 µM
CC1CCCCN1CCNC(=O)c1ccc2c(=O)n(Cc3ccc(Cl)cc3)c(=S)[nH]c2c1 (configuration not stated)		inconclusive: 16.4 µM [inhibitor, single point]
COC(=O)C1=NN(c2ccc(C)cc2)C2(S1)SC(C(C)=O)=C(C)N2c1ccccc1 (configuration not stated)		inconclusive: 29.1 µM [inhibitor, single point]
O=C(COc1ncnc2ccc(Br)cc12)NCc1ccco1	inactive: -28.6%	
CN1CCN(c2ccc(CNC(=O)c3cccc4c(-c5ccc(F)c(F)c5)coc34)cc2)CC1		inconclusive: 29.1 µM [inhibitor, single point]

Compound	activity change, negative = growth inhibition	Potency
CC(C)c1ccc(C(C(=O)NC2CCCCC2)N(C(=O)c2csnn2)C2CC2)cc1 (configuration not stated)		inconclusive: 23.1 µM [inhibitor, single point]
CCOC(=O)c1c(-c2ccccc2)csc1NC(=O)C(C)NCc1ccco1 (configuration not stated)		inconclusive: 20.6 µM [inhibitor, single point]
Cn1c(N)c(C(=O)COC(=O)CCCc2c[nH]c3ccccc23)c(=O)n(C)c1=O		inconclusive: 23.1 µM [inhibitor, partial curve]
CCOc1c(Cl)cc(/C=N/NC(N)=S)cc1OC		active: 23.1 µM
Cc1c(C(=O)OC2CCC(C)CC2)[nH]c2c1C(=O)CCC2 (configuration not stated)		inconclusive: 16.4 µM [inhibitor, partial curve, poor fit]
COc1ccccc1-n1nnnc1SCC(=O)N(C)C1CCS(=O)(=O)C1 (configuration not stated)	inactive: 15.8%	
O=C(COc1ccc2ccccc2c1)NC1CC(=O)N(c2ccc(F)cc2)C1 (configuration not stated)		inconclusive: 29.1 µM [inhibitor, single point]
COc1ccc(-c2oc3ccccc3c2C(=O)OCc2ccccc2)cc1	inactive: -1.73%	
CCC[C@@H](CN1CCC[C@H]1CN1C(N)=NC[C@@H]1Cc1ccccc1)N1C[C@@H]([C@H](C)CC)N(CCCC2CCCC2)C1=N		active: 8.2 µM
CCOC(=O)c1ccc(S(=O)(=O)N2CCC(N3CCCCCC3)CC2)cc1	inactive: -27.7%	
CC(C)=CCC/C(C)=C/CC/C(C)=C/CO		inactive and inconclusive: 16.4 µM [inhibitor, single point]
Cc1cc(S(=O)(=O)Nc2ccc(C(=O)N3CCN(c4ccccc4O)CC3)cc2)ccc1F		inconclusive: 20.6 µM [inhibitor, single point]
COc1ccc(C(C)(C)C)cc1NC(=O)CN1C(=O)C(=O)N(Cc2ccco2)C1=O	inactive: 2.35%	
COc1ccc(CCC(C)NCc2cc(OC)cc(OC)c2)cc1 (configuration not stated)		inconclusive: 20.6 µM [inhibitor, single point]
O=C(COc1ccccc1)N(Cc1nnc(-c2ccccc2Cl)o1)C1CC1	inactive: -26.8%	
O=C(NCCc1ccccc1)C1CCCN(C(=O)Nc2ccc(F)cc2)C1 (configuration not stated)		active: 6.51 µM
COCC(=O)Nc1nc(-c2ccc(C)cc2)c(C)s1		inconclusive: 16.4 µM [inhibitor, single point]
Cc1nc2sccn2c(=O)c1CCN1CCC(=C(c2ccccc2)c2ccc(F)cc2)CC1		active: 11.9 µM
CCOc1ccnc2c1c(=O)n(Cc1cc(OC)cc(OC)c1)c(=O)n2C	inactive: -0.0535%	
Cc1cc(C)n(-c2ccc(C(=O)N3CCN(S(=O)(=O)c4ccc(Br)cc4Cl)CC3)cc2)n1		active: 16.4 µM
O=[N+]([O-])c1ccccc1N(CC1CO1)S(=O)(=O)c1ccccc1 (configuration not stated)	inactive: -24.2%	
C/C(=N/NC(=O)Cc1cccc2ccccc12)c1cccs1		active: 16.4 µM
CCOc1ccccc1NC(=O)C(NCC1(N2CCCCC2)CCCCC1)c1ccccc1 (configuration not stated)		active: 16.4 µM
O=C(Nc1ccc(NC(=O)c2cc3ccccc3o2)cc1)c1ccco1		inconclusive: 23.1 µM [inhibitor, single point]

Compound	activity change, negative = growth inhibition	Potency
CC1CCCN(CCSc2ccc(Cl)cc2)C1 (configuration not stated)		inconclusive: 23.1 µM [inhibitor, partial curve, poor fit]
CS(=O)(=O)c1ccc(-c2nnc(NC(=O)c3ccco3)o2)cc1	inactive: -20.4%	
CCn1nc(NC(=O)C2CCCO2)c2cc3cc(C)ccc3nc21 (configuration not stated)	inactive: -23.1%	
CCN(CC(=O)Nc1ccc(OC)cc1)C(=O)c1ccc2c(=O)n3c(nc2c1)CCC3	inactive: -16.3%	
Cc1ccccc1OCc1nc2c3cnn(-c4cccc(F)c4)c3ncn2n1		inconclusive: 14.6 µM [inhibitor, partial curve]
Cc1cccc(-c2c3c(=O)n(C)c(=O)n(C)c3c3nnc4ccccc4n23)c1		active: 6.51 µM
COc1ccc(NC(=O)c2cc3ccccc3o2)cc1S(=O)(=O)N1CCCCC1	inconclusive: -33.6% [inhibitor]	
O=C(Nc1ccc(Cl)c(S(=O)(=O)N2CCOCC2)c1)c1cc(=O)[nH]c2ccccc12		inconclusive: 23.1 µM [inhibitor, single point]
CC(=O)NCCC(=O)Nc1cc(S(=O)(=O)Nc2ccc(Cl)cc2)ccc1N1CCCC1		inconclusive: 16.4 µM [inhibitor, single point]
CC(O)(COc1ccccc1)c1ccc2c(c1)CN(Cc1cccc3ncccc13)CCO2 (configuration not stated)		inconclusive: 23.1 µM [inhibitor, single point]
CCOC(=O)N1CCN(C(=O)CSCc2ccc(Cl)cc2)CC1		inconclusive: 20.6 µM [inhibitor, single point]
CN(C)c1ccc(/C=C/C=N/Nc2nc(N3CCOCC3)nc(N3CCOCC3)n2)cc1		inconclusive: 29.1 µM [inhibitor, single point]
Cc1cccc(CNC(=O)C2CCC(=O)N(CCCc3ccccc3)C2)c1 (configuration not stated)		inconclusive: 29.1 µM [inhibitor, single point]
COc1ccc(N(CC(=O)N2CCCC2)S(=O)(=O)c2ccc(NC(C)=O)cc2)cc1	inactive: -6.42%	
COc1cccc(NC(=O)CN(C)C(=O)/C=C/c2ccc(S(=O)(=O)N3CCCCCC3)cc2)c1		active: 18.4 µM
CCOC(CNC(=O)c1cc2c(=O)n(CC)c3ccccc3c2s1)OCC		inconclusive: 23.1 µM [inhibitor, partial curve]
O=C(CSc1ccc(-c2cccnc2)nn1)N1CCCCC1	inactive: 6.27%	
CCc1sc(C(=O)Nc2nc(C)cs2)cc1C		inconclusive: 29.1 µM [inhibitor, single point]
CC(C)(C)C(=O)OCc1nc(-c2ccc(O)c(O)c2)cs1		active: 20.6 µM
CCCCNC(=O)c1c(-c2ccccc2)c(-c2ccccc2)nn(C)c1=O		inconclusive: 9.2 µM [inhibitor, single point]
COc1ccccc1N(CCC#N)C(=O)CSc1nnc2ccccn12	inactive: 1.3%	
Cc1cc(C)c(C(=O)NCC2CCCO2)c(C)c1C(=O)NCC1CCCO1 (configuration not stated)	inactive: -6.25%	
COc1ccc(-c2csc(C(O)c3cccc(OC)c3)n2)cc1 (configuration not stated)		inconclusive: 16.4 µM [inhibitor, single point]
CCCCNC(=O)c1ccc2c(c1)N(CC)C(=O)c1ccccc1S2		inconclusive: 32.6 µM [inhibitor, single point]
